{"source": "the BET-seq Pho4 binding data (Le et al. 2018)", "note": "The list shows a part of the results. These are noisy estimates, calculated here from bound and input reads."}
{"target": "T1, Pho4 (S. cerevisiae) (UniProt P07270)", "T1 sequence": "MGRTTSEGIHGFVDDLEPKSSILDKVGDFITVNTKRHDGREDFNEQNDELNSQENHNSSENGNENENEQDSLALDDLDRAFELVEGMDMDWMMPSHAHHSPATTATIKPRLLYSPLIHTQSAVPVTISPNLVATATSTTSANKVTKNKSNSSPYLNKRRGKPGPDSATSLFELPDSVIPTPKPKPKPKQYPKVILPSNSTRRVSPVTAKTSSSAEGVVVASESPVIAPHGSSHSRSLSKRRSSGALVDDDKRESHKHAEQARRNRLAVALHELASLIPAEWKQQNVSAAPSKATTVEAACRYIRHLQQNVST", "test": "relative binding free energy (BET-seq); higher = weaker binding", "settings": "reference: library average", "units": {"relative binding free energy": "kcal/mol"}}
{"sequence": "TTGATCACGTGCGGTA", "relative binding free energy": 0.08}
{"sequence": "TGGTTCACGTGAGCTA", "relative binding free energy": 0.39}
{"sequence": "AAGCACACGTGGTGTT", "relative binding free energy": 0.02}
{"sequence": "GGGGACACGTGGTTCA", "relative binding free energy": -0.03}
{"sequence": "AAGTTCACGTGTCGAG", "relative binding free energy": 0.44}
{"sequence": "TCGTTCACGTGGTGAT", "relative binding free energy": 0.22}
{"sequence": "AGGCACACGTGTGTGG", "relative binding free energy": 0.11}
{"sequence": "GGTATCACGTGATGAG", "relative binding free energy": 0.21}
{"sequence": "CTAGGCACGTGTTTAA", "relative binding free energy": -0.07}
{"sequence": "ATGAGCACGTGTAAGT", "relative binding free energy": -0.03}
{"sequence": "GAGTGCACGTGTGGGG", "relative binding free energy": 0.14}
{"sequence": "TGACGCACGTGGGGAA", "relative binding free energy": -0.24}
{"sequence": "TGAAGCACGTGGGATA", "relative binding free energy": -0.1}
{"sequence": "TGATTCACGTGATCAG", "relative binding free energy": 0.34}
{"sequence": "TGTGTCACGTGACTCG", "relative binding free energy": 0.19}
{"sequence": "TATCTCACGTGCGTGT", "relative binding free energy": 0}
{"sequence": "GTCTTCACGTGAGAGG", "relative binding free energy": 0.47}
{"sequence": "AAATGCACGTGGGTCT", "relative binding free energy": -0.03}
{"sequence": "GATGGCACGTGCAGGA", "relative binding free energy": -0.07}
{"sequence": "ATAGTCACGTGGGCTG", "relative binding free energy": -0.09}
{"sequence": "GTTGCCACGTGGGGGA", "relative binding free energy": -0.23}
{"sequence": "AATTTCACGTGTTTAA", "relative binding free energy": 0.22}
{"sequence": "GTTGACACGTGGGTAT", "relative binding free energy": 0.08}
{"sequence": "GGGATCACGTGTTAGG", "relative binding free energy": 0.08}
{"sequence": "GTTTACACGTGTAGAT", "relative binding free energy": 0.28}
{"sequence": "GTATGCACGTGTGGTA", "relative binding free energy": 0.04}
{"sequence": "ATTAACACGTGTGTGT", "relative binding free energy": -0.03}
{"sequence": "GGTTACACGTGCAGGT", "relative binding free energy": 0.02}
{"sequence": "AAGGACACGTGGGATT", "relative binding free energy": -0.04}
{"sequence": "TTATACACGTGATTGG", "relative binding free energy": 0.04}
{"sequence": "GGTATCACGTGAGTTT", "relative binding free energy": 0.35}
{"sequence": "GGCGACACGTGGTGAG", "relative binding free energy": 0.05}
{"sequence": "TTGGGCACGTGTTCTG", "relative binding free energy": -0.02}
{"sequence": "TTGCGCACGTGAAATG", "relative binding free energy": 0.09}
{"sequence": "GCTTACACGTGTATGT", "relative binding free energy": 0.15}
{"sequence": "TAAGTCACGTGATTGA", "relative binding free energy": 0.11}
{"sequence": "GAGGTCACGTGAAATT", "relative binding free energy": 0.48}
{"sequence": "TTAGACACGTGGGTCT", "relative binding free energy": -0.08}
{"sequence": "TTGTGCACGTGATCGG", "relative binding free energy": 0.04}
{"sequence": "GGCGTCACGTGGGATT", "relative binding free energy": 0.07}
{"sequence": "GGATACACGTGAGGGT", "relative binding free energy": 0.3}
{"sequence": "TGTTGCACGTGCAGGC", "relative binding free energy": -0.13}
{"sequence": "AGGTTCACGTGCGCTT", "relative binding free energy": 0.22}
{"sequence": "TGATGCACGTGGTAAA", "relative binding free energy": -0.02}
{"sequence": "TGTGACACGTGCGTTC", "relative binding free energy": 0.04}
{"sequence": "GGAAGCACGTGTGGCA", "relative binding free energy": -0.12}
{"sequence": "AGGTTCACGTGGATTC", "relative binding free energy": 0.33}
{"sequence": "AGCCGCACGTGGGGGA", "relative binding free energy": -0.17}
{"sequence": "TTAGACACGTGATAGT", "relative binding free energy": 0.12}
{"sequence": "AGTTGCACGTGCCGTT", "relative binding free energy": 0.03}
{"sequence": "TATTCCACGTGCTTTT", "relative binding free energy": 0.11}
{"sequence": "TCGGGCACGTGGAATG", "relative binding free energy": -0.06}
{"sequence": "GGATACACGTGGCTGG", "relative binding free energy": -0.01}
{"sequence": "TTTGACACGTGTACTT", "relative binding free energy": -0.14}
{"sequence": "GGCTTCACGTGGCAGG", "relative binding free energy": 0.35}
{"sequence": "TATCGCACGTGCTGTG", "relative binding free energy": -0.09}
{"sequence": "TGTTTCACGTGGGGAA", "relative binding free energy": 0.19}
{"sequence": "GGGGACACGTGTGGCA", "relative binding free energy": 0.09}
{"sequence": "CGGTTCACGTGAAGAT", "relative binding free energy": 0.39}
{"sequence": "CGTATCACGTGTGTGA", "relative binding free energy": 0.22}
{"sequence": "ATTCGCACGTGGTGGC", "relative binding free energy": -0.08}
{"sequence": "TATGTCACGTGTGAGG", "relative binding free energy": 0.09}
{"sequence": "TGTGGCACGTGCTGGG", "relative binding free energy": -0.09}
{"sequence": "TGCATCACGTGGGAAT", "relative binding free energy": 0.21}
{"sequence": "AGTAGCACGTGCGTAG", "relative binding free energy": -0.15}
{"sequence": "ATTGGCACGTGTGAAA", "relative binding free energy": 0.02}
{"sequence": "AACTTCACGTGGTGTT", "relative binding free energy": 0.16}
{"sequence": "CGGTGCACGTGTGGAG", "relative binding free energy": -0.05}
{"sequence": "ATTGACACGTGGTGAC", "relative binding free energy": 0.02}
{"sequence": "GTTGACACGTGGGGTG", "relative binding free energy": -0.07}
{"sequence": "TGGGACACGTGTTAAT", "relative binding free energy": 0.09}
{"sequence": "AGTATCACGTGATTTT", "relative binding free energy": 0.32}
{"sequence": "ATTTGCACGTGGAGAA", "relative binding free energy": 0.04}
{"sequence": "TGGAGCACGTGGGTCG", "relative binding free energy": -0.29}
{"sequence": "AATGTCACGTGTAGAT", "relative binding free energy": 0.28}
{"sequence": "CGAAGCACGTGGCGTG", "relative binding free energy": -0.12}
{"sequence": "CTATGCACGTGAGTTA", "relative binding free energy": 0.14}
{"sequence": "AAGTTCACGTGCAGTT", "relative binding free energy": 0.22}
{"sequence": "TGATGCACGTGAGTGC", "relative binding free energy": 0.07}
{"sequence": "AAGTACACGTGAGTAG", "relative binding free energy": 0.24}
{"sequence": "GTTCTCACGTGTGGGA", "relative binding free energy": 0.08}
{"sequence": "GATGGCACGTGTTCTG", "relative binding free energy": 0.1}
{"sequence": "AGTGACACGTGGCTTT", "relative binding free energy": -0.21}
{"sequence": "GGGGTCACGTGCAGAT", "relative binding free energy": 0.09}
{"sequence": "GGTTACACGTGGGGGT", "relative binding free energy": 0.11}
{"sequence": "CGGGGCACGTGAGTGC", "relative binding free energy": 0.13}
{"sequence": "GAAAACACGTGGGGGT", "relative binding free energy": -0.02}
{"sequence": "GGGACCACGTGAGTTG", "relative binding free energy": 0.26}
{"sequence": "ATTTACACGTGGGACT", "relative binding free energy": 0.06}
{"sequence": "ATATGCACGTGGTGTA", "relative binding free energy": -0.14}
{"sequence": "TTTGTCACGTGGATTC", "relative binding free energy": 0.17}
{"sequence": "CTATTCACGTGCGGTA", "relative binding free energy": 0.38}
{"sequence": "GTAATCACGTGTGATG", "relative binding free energy": 0.17}
{"sequence": "CTTTACACGTGTTGTG", "relative binding free energy": -0.01}
{"sequence": "GGGTTCACGTGATGGC", "relative binding free energy": 0.34}
{"sequence": "GAGTACACGTGGGTGG", "relative binding free energy": 0.05}
{"sequence": "GTTAACACGTGGAAGG", "relative binding free energy": 0.07}
{"sequence": "ACTTTCACGTGGGCAT", "relative binding free energy": 0.24}
{"sequence": "AATGGCACGTGTCTTA", "relative binding free energy": -0.04}
{"sequence": "TTCCGCACGTGGGGGA", "relative binding free energy": -0.27}
{"sequence": "TGAGGCACGTGGAAAA", "relative binding free energy": 0.16}
{"sequence": "TTGAGCACGTGGGATC", "relative binding free energy": -0.05}
{"sequence": "CGTTACACGTGTTTGG", "relative binding free energy": 0}
{"sequence": "GAGGACACGTGGGCTT", "relative binding free energy": 0.02}
{"sequence": "GGCGTCACGTGGTGCA", "relative binding free energy": 0.19}
{"sequence": "GTAGGCACGTGCGGGA", "relative binding free energy": -0.1}
{"sequence": "GGGGGCACGTGAAGTC", "relative binding free energy": 0.23}
{"sequence": "GGAGGCACGTGCATTT", "relative binding free energy": -0.06}
{"sequence": "TGGAGCACGTGTCGGT", "relative binding free energy": -0.03}
{"sequence": "ATTTCCACGTGTTGTA", "relative binding free energy": 0.11}
{"sequence": "GTTGGCACGTGGTTGC", "relative binding free energy": 0.05}
{"sequence": "ATTTTCACGTGTGTAC", "relative binding free energy": 0.22}
{"sequence": "TATGACACGTGGCGTT", "relative binding free energy": -0.09}
{"sequence": "AGTGTCACGTGTTCGG", "relative binding free energy": 0.01}
{"sequence": "AAGGGCACGTGGATGG", "relative binding free energy": -0.08}
